From the supplement of paper PMC9174493
Some of the results follow. Single values of this set are uncertain. Values with irradiation are relative to irradiated vehicle.

test system: A549-Dual; assay: ISRE reporter (Lucia luciferase) activity, viability-corrected, relative to vehicle (fold change vs vehicle); higher = more activation of STING-IRF / NF-kB immune response reporter; details: 10 µM; irradiation: none

Compound	ISRE reporter
C=C(C)C1CCC2(CO)CCC3(C)C(CCC4C5(C)CCC(O)C(C)(C)C5CCC43C)C12 (centres undefined) [Betulin]	0.138
C1CCN2CC3CC(CN4CCCCC34)C2C1 (centres undefined) [Sparteine]	0.51
CC(=O)OCC(=O)C1CCC2C3CCC4=CC(=O)CCC4(C)C3CCC12C (centres undefined) [Deoxycorticosterone acetate]	0.492
COc1ccc(/C=C/C(=O)Nc2ccccc2C(=O)O)cc1OC [Tranilast]	0.857
CN(C)C(CCOc1cccc2ccccc12)c1ccccc1.Cl (centres undefined) [Dapoxetine HCl]	1.01
O=c1cc(O)c(Cl)c[nH]1 [Gimeracil]	0.723
CC1=C(/C=C/C(C)=C/C=C/C(C)=C/CO)C(C)(C)CCC1 [Vitamin A]	0.753
CC1=C(C(=O)O)N2C(=O)C(NC(=O)C(N)c3ccccc3)C2SC1 (centres undefined) [Cephalexin]	1.02
CCOc1ccc2nc(S(N)(=O)=O)sc2c1 [Ethoxzolamide]	0.789
